# Patent publication US20260217835A1 (published 2026)
# Legend:
# [1] = target: VHH-Fc with T350V/L351Y/T366L/K392L/T394W/F405A/Y407V (SEQ ID NO: 593); experiment: SEC peak area ratio; full-length heavy chain, light chain and VHH-Fc coexpressed in Expi293F, affinity purified
# [2] = target: VHH-Fc with E345R/K360E/D399M/Y407A/K409V (SEQ ID NO: 592); experiment: as above
# [3] = target: VHH-Fc with K392D/D399K/K409D (SEQ ID NO: 588); experiment: as above
# [4] = target: T1, VHH-Fc with E356K/K392D/D399K/K409D (SEQ ID NO: 591); experiment: as above
# T1 construct: also called VHH-Fc of Sample No. 310
# [5] = target: T2, VHH-Fc with E345R/Q347R/K360D/T366V/D399M/Y407A/K409V (SEQ ID NO: 590); experiment: as above
# T2 construct: also called VHH-Fc of Sample No. 309
# [6] = target: T3, VHH-Fc with Y349C/E357C/K392D/D399K (SEQ ID NO: 589); experiment: as above
# T3 construct: also called VHH-Fc of Sample No. 308
# [7] = target: VHH-Fc with E356K/K392D/D399K/K439E (SEQ ID NO: 587); experiment: as above
# [8] = target: the molecule itself; experiment: SEC peak area ratio after coexpression of full-length heavy chain, light chain and WT Fc fragment in Expi293F, Protein A purified;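 note: chromatogram peaks detected by UV absorbance at 215 nm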
# [9] = target: the molecule itself; experiment: SEC peak area ratio; coexpression of full-length heavy chain, light chain and Fc fragment
# [10] = target: the molecule itself; experiment: SEC area ratio of heavy chain homodimer; co-expressed with Fc fragment SEQ ID NO 62
# [11] = target: the molecule itself; experiment: SEC area ratio of heavy chain homodimer; co-expressed with Fc fragment SEQ ID NO 102
# [12] = target: T4, IgG4 Fc fragment without modification (SEQ ID NO: 102) (Homo sapiens (Human), UniProt P01861 part only = IgG part); experiment: SEC area ratio of heteromultimer after co-expression of full-length heavy chain, light chain and Fc fragment
# T4 construct: Fc fragment, IgG4 subclass, no modification
# [13] = target: T5, IgG4 Fc fragment without modification (SEQ ID NO: 102) (Homo sapiens (Human), UniProt P01861 part only = IgG part); experiment: SEC peak area ratio after coexpression of full-length heavy chain, light chain and Fc fragment
# T5 construct: Unmodified Fc fragment of subclass IgG4, coexpressed with the full-length heavy chain and the light chain; it pairs as a homodimer or with the full-length heavy chain
# [14] = target: the molecule itself; experiment: as above
# [15] = target: T6, IgG2 Fc fragment without modification (SEQ ID NO: 103) (Homo sapiens (Human), UniProt P01859 99-324 = IgG part); experiment: as above
# T6 construct: Unmodified Fc fragment of subclass IgG2, coexpressed with the full-length heavy chain and the light chain; it pairs as a homodimer or with the full-length heavy chain
# [16] = target: T7, IgG2 Fc fragment without modification (SEQ ID NO: 103) (Homo sapiens (Human), UniProt P01859 99-324 = IgG part); experiment: co-expression of full-length heavy chain, light chain and Fc fragment in Expi293F, affinity purification, SEC peak area ratio;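 note: purified antibodies analysed by size exclusion chromatography with UV detection at 215 nm, each species given as share of total chromatogram peak area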
# T7 construct: Fc fragment co-expressed with a full-length heavy chain and the light chain; the associating unit is one Fc chain; also called WT-IgG2 Fc fragment
# [17] = target: the molecule itself; experiment: as above
binder,measurement,setting,value
"WT-IgG1: full-length heavy chain SEQ ID NO: 1 with light chain SEQ ID NO: 61 (antibody, Unmodified human IgG1 heavy chain, coexpressed with the light chain and a VHH-Fc; the SEC percents tell how the Fc-bearing chains pair) heavy: QVQLQESGPGLVRPSQTLSLTCTVSGYSITSDHAWSWVRQPPGRGLEWIGYISYSGITTYNPSLKSRVTMLRDTSKNQFSLRLSSVTAADTAVYYCARSLARTTAMDYWGQGSLVTVSSASTKGPSVFPLAPSSKSTSGGTAALGCLVKDYFPEPVTVSWNSGALTSGVHTFPAVLQSSGLYSLSSVVTVPSSSLGTQTYICNVNHKPSNTKVDKRV[no letters for human IgG1 Fc] light: DIQMTQSPSSLSASVGDRVTITCRASQDISSYLNWYQQKPGKAPKLLIYYTSRLHSGVPSRFSGSGSGTDFTFTISSLQPEDIATYYCQQGNTLPYTFGQGTKVEIKRTVAAPSVFIFPPSDEQLKSGTASVVCLLNNFYPREAKVQWKVDNALQSGNSQESVTEQDSKDSTYSLSSTLTLSKADYEKHKVYACEVTHQGLSSPVTKSFNRGEC",Heteromultimer (%),[1],0%
same,Heteromultimer (%),[2],0%
same,Heteromultimer (%),[3],0%
same,Heteromultimer (%),[4],0%
same,Heteromultimer (%),[5],0%
same,Heteromultimer (%),[6],0%
same,Heteromultimer (%),[7],0%
"WT-IgG1 full-length heavy chain (SEQ ID NO: 1) with light chain (SEQ ID NO: 61), Sample No. 1 (antibody, also called Sample No. 765) heavy: QVQLQESGPGLVRPSQTLSLTCTVSGYSITSDHAWSWVRQPPGRGLEWIGYISYSGITTYNPSLKSRVTMLRDTSKNQFSLRLSSVTAADTAVYYCARSLARTTAMDYWGQGSLVTVSSASTKGPSVFPLAPSSKSTSGGTAALGCLVKDYFPEPVTVSWNSGALTSGVHTFPAVLQSSGLYSLSSVVTVPSSSLGTQTYICNVNHKPSNTKVDKRV[no letters for human IgG1 Fc] light: DIQMTQSPSSLSASVGDRVTITCRASQDISSYLNWYQQKPGKAPKLLIYYTSRLHSGVPSRFSGSGSGTDFTFTISSLQPEDIATYYCQQGNTLPYTFGQGTKVEIKRTVAAPSVFIFPPSDEQLKSGTASVVCLLNNFYPREAKVQWKVDNALQSGNSQESVTEQDSKDSTYSLSSTLTLSKADYEKHKVYACEVTHQGLSSPVTKSFNRGEC",Homo full-length heavy chain (%),[8],31.5%
"full-length human IgG1 heavy chain without modification (WT-IgG1, SEQ ID NO: 1) paired with light chain SEQ ID NO: 61 (antibody, also called Sample No. 1) heavy: QVQLQESGPGLVRPSQTLSLTCTVSGYSITSDHAWSWVRQPPGRGLEWIGYISYSGITTYNPSLKSRVTMLRDTSKNQFSLRLSSVTAADTAVYYCARSLARTTAMDYWGQGSLVTVSSASTKGPSVFPLAPSSKSTSGGTAALGCLVKDYFPEPVTVSWNSGALTSGVHTFPAVLQSSGLYSLSSVVTVPSSSLGTQTYICNVNHKPSNTKVDKRV[no letters for human IgG1 Fc] light: DIQMTQSPSSLSASVGDRVTITCRASQDISSYLNWYQQKPGKAPKLLIYYTSRLHSGVPSRFSGSGSGTDFTFTISSLQPEDIATYYCQQGNTLPYTFGQGTKVEIKRTVAAPSVFIFPPSDEQLKSGTASVVCLLNNFYPREAKVQWKVDNALQSGNSQESVTEQDSKDSTYSLSSTLTLSKADYEKHKVYACEVTHQGLSSPVTKSFNRGEC",Homo full-length heavy chain (%),[9],31.5%
IgG4 full-length heavy chain without modification (SEQ ID NO: 92) with light chain (SEQ ID NO: 61) (antibody) heavy: QVQLQESGPGLVRPSQTLSLTCTVSGYSITSDHAWSWVRQPPGRGLEWIGYISYSGITTYNPSLKSRVTMLRDTSKNQFSLRLSSVTAADTAVYYCARSLARTTAMDYWGQGSLVTVSSASTKGPSVFPLAPCSRSTSESTAALGCLVKDYFPEPVTVSWNSGALTSGVHTFPAVLQSSGLYSLSSVVTVPSSSLGTKTYTCNVDHKPSNTKVDKRV[no letters for human IgG4 Fc with S228P (EU numbers)] light: DIQMTQSPSSLSASVGDRVTITCRASQDISSYLNWYQQKPGKAPKLLIYYTSRLHSGVPSRFSGSGSGTDFTFTISSLQPEDIATYYCQQGNTLPYTFGQGTKVEIKRTVAAPSVFIFPPSDEQLKSGTASVVCLLNNFYPREAKVQWKVDNALQSGNSQESVTEQDSKDSTYSLSSTLTLSKADYEKHKVYACEVTHQGLSSPVTKSFNRGEC,Homo full-length heavy chain (%),[10],46.4%
same,Homo full-length heavy chain (%),[11],19.4%
same,Heteromultimer (%),[12],54.3%
"IgG1 full-length heavy chain without CH3 modification (SEQ ID NO: 1) with light chain SEQ ID NO: 61 (antibody, also called WT-IgG1) heavy: QVQLQESGPGLVRPSQTLSLTCTVSGYSITSDHAWSWVRQPPGRGLEWIGYISYSGITTYNPSLKSRVTMLRDTSKNQFSLRLSSVTAADTAVYYCARSLARTTAMDYWGQGSLVTVSSASTKGPSVFPLAPSSKSTSGGTAALGCLVKDYFPEPVTVSWNSGALTSGVHTFPAVLQSSGLYSLSSVVTVPSSSLGTQTYICNVNHKPSNTKVDKRV[no letters for human IgG1 Fc] light: DIQMTQSPSSLSASVGDRVTITCRASQDISSYLNWYQQKPGKAPKLLIYYTSRLHSGVPSRFSGSGSGTDFTFTISSLQPEDIATYYCQQGNTLPYTFGQGTKVEIKRTVAAPSVFIFPPSDEQLKSGTASVVCLLNNFYPREAKVQWKVDNALQSGNSQESVTEQDSKDSTYSLSSTLTLSKADYEKHKVYACEVTHQGLSSPVTKSFNRGEC",Heteromultimer (%),[13],55.3%
same,Homo full-length heavy chain (%),[14],33.8%
IgG4 full-length heavy chain without CH3 modification (SEQ ID NO: 92) with light chain SEQ ID NO: 61 (antibody) heavy: QVQLQESGPGLVRPSQTLSLTCTVSGYSITSDHAWSWVRQPPGRGLEWIGYISYSGITTYNPSLKSRVTMLRDTSKNQFSLRLSSVTAADTAVYYCARSLARTTAMDYWGQGSLVTVSSASTKGPSVFPLAPCSRSTSESTAALGCLVKDYFPEPVTVSWNSGALTSGVHTFPAVLQSSGLYSLSSVVTVPSSSLGTKTYTCNVDHKPSNTKVDKRV[no letters for human IgG4 Fc with S228P (EU numbers)] light: DIQMTQSPSSLSASVGDRVTITCRASQDISSYLNWYQQKPGKAPKLLIYYTSRLHSGVPSRFSGSGSGTDFTFTISSLQPEDIATYYCQQGNTLPYTFGQGTKVEIKRTVAAPSVFIFPPSDEQLKSGTASVVCLLNNFYPREAKVQWKVDNALQSGNSQESVTEQDSKDSTYSLSSTLTLSKADYEKHKVYACEVTHQGLSSPVTKSFNRGEC,Heteromultimer (%),[15],56.1%
same,Homo full-length heavy chain (%),[14],31.8%
"IgG1 full-length heavy chain without modification (SEQ ID NO: 1) with light chain SEQ ID NO: 61 (antibody, also called WT-IgG1) heavy: QVQLQESGPGLVRPSQTLSLTCTVSGYSITSDHAWSWVRQPPGRGLEWIGYISYSGITTYNPSLKSRVTMLRDTSKNQFSLRLSSVTAADTAVYYCARSLARTTAMDYWGQGSLVTVSSASTKGPSVFPLAPSSKSTSGGTAALGCLVKDYFPEPVTVSWNSGALTSGVHTFPAVLQSSGLYSLSSVVTVPSSSLGTQTYICNVNHKPSNTKVDKRV[no letters for human IgG1 Fc] light: DIQMTQSPSSLSASVGDRVTITCRASQDISSYLNWYQQKPGKAPKLLIYYTSRLHSGVPSRFSGSGSGTDFTFTISSLQPEDIATYYCQQGNTLPYTFGQGTKVEIKRTVAAPSVFIFPPSDEQLKSGTASVVCLLNNFYPREAKVQWKVDNALQSGNSQESVTEQDSKDSTYSLSSTLTLSKADYEKHKVYACEVTHQGLSSPVTKSFNRGEC",Heteromultimer (%),[16],50%
same,Homo full-length heavy chain (%),[17],38.7%
